Data on six compounds can be found in PMC6431625 (Frontiers in Endocrinology, 2019).

Read-outs that look alike come from different tables or passages of the source.

Experiment [1] addresses T1, AT1R-Venus/FP-WT dimer (Homo sapiens, UniProt P30556+P43088). As to the kind of experiment: cell-based.
The target of experiment [2] is T1, AT1R-Venus/FP-WT dimer. To be noted: for Effect of endocytosis inhibitor pretreatment on PGF2α-induced β-arrestin 1/2-RlucII recruitment: pretreatment 30 min, sucrose 450 mM, phenylarsine oxide 2.5 μM, concanavalin A 0.4 g/L, PGF2α 1 μM.

With `O=C(O)CCC/C=C\C[C@@H]1[C@@H](/C=C/[C@@H](O)COc2cccc(C(F)(F)F)c2)[C@H](O)C[C@@H]1O` (racemic) [Fluprostenol], the EC50 in experiment [1] came to 0.89 nM.

On to `O=C(O)CCC/C=C\C[C@@H]1[C@@H](/C=C/[C@H](O)C2Cc3ccccc3C2)[C@@H](F)C[C@@H]1O` [AL-8810], for which, in experiment [2] (read-out: EC50 values for β-arrestin 2-RlucII recruitment to the AT1R-Venus/FP-WT dimer, Mean ± SEM, HEK 293 parental cells transiently expressing β-arrestin 2-RlucII, AT1R-Venus and FP-WT, n = 3, unit M), the EC50 was determined as 3000 nM.

For the compound `OC[C@H]1O[C@@](CO)(O[C@H]2O[C@H](CO)[C@@H](O)[C@H](O)[C@H]2O)[C@@H](O)[C@@H]1O` [Sucrose, sucrose], the “Effect of endocytosis inhibitor pretreatment on PGF2α-induced β-arrestin 1/2-RlucII recruitment” value in experiment [2] was “diminished”.

The compound `CC(C)OC(=O)CCC/C=C\C[C@@H]1[C@@H](/C=C/C(F)(F)COc2ccccc2)[C@H](O)C[C@@H]1O` [Tafluprost] displayed an EC50 in experiment [1] of 0.48 nM.

In the case of `CCCCc1nc(Cl)c(CO)n1Cc1ccc(-c2ccccc2-c2nn[nH]n2)cc1` [losartan], the “Effect of AT1R antagonist on Ang II-induced β-arrestin 1/2 recruitment” value in experiment [2] (losartan 100 μM, Ang II 1 μM) is reported as “blocked”.

As for concanavalin A, the “Effect of endocytosis inhibitor pretreatment on PGF2α-induced β-arrestin 1/2-RlucII recruitment” value in experiment [2] is on record as “potentiated”.
